# Experimental data from PubChem BioAssay AID624202 (National Center for Advancing Translational Sciences (NCATS), 2012).
# Hit rate of the full screen: of about 380,000 compounds, about 4,000 (1.1%) were called active. The inconclusive results got no clear call from the source; some entries with a clear call stand among them for comparison. The call rests on the fitted dose curve; in most records, active means well fitted activation curve with a large enough effect; inconclusive means small, poorly fitted or top-dose-only effect; inactive means no such curve, though single readings can be large or run the other way. Potencies of inconclusive entries are doubtful fits and often do not repeat.
# Assay: qHTS Assay to Identify Small Molecule Activators of BRCA1 Expression; further: nearly all actives have a fitted effect of over 80% in size
# Conditions: MCF7-BRCA1-FFLuc reporter, luminescence, 48 h; activation: at 46.1 µM (top of the series), scaled: vehicle 0%, 10 µM genistein 100% unless noted
# How it was run: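 Quantitative HTS in MCF7 cells stably reporting BRCA1 expression via firefly luciferase. Compound treatment lasts 48 h at 37 °C in phenol-red free MEM. Activation is expressed relative to genistein at 10 microM and DMSO.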
# Potency means the concentration at half of the fitted maximal effect; tags describe the fitted curve by direction and shape.
SMILES,activation,Potency
Clc1ccc(N=c2ssnc2Cl)cc1,inactive: -60.3%,–
CN(Cc1ccsc1)C(=O)Cn1cc(Br)ccc1=O,–,"inconclusive: 11.2 µM [activator, partial curve, poor fit]"
Cc1ccc(Cn2c(N3CCNCC3)nc3c2c(=O)[nH]c(=O)n3C)cc1,inactive: -24.7%,–
O=C(Nc1ccsc1C(=O)O)c1ccccc1,–,"inconclusive: 22.4 µM [activator, single point]"
O=C(Nc1ccccc1C(=O)O)c1ccc(NC(=O)C2CCCCC2)cc1,inactive: 71.6%,–
O=C(/C=C/c1ccc2c(c1)OCO2)NCC1CCCO1 (centres undefined),–,"inconclusive: 17.8 µM [activator, single point]"
C#CCn1c2ccccc2c2nc3ccccc3nc21,–,"inconclusive: 31.6 µM [activator, single point]"
Cn1cc([N+](=O)[O-])c(C(=O)Nc2ccc(-c3nc4ccccc4[nH]3)cc2)n1,–,active: 7.94 µM
CN1C2=CC=CC=CC2=[N+](C)C12C=CC(=[N+]([O-])[O-])C=C2[N+](=O)[O-] (centres undefined),inactive: -24.4%,–
CCOC(=O)N/N=C/c1ccccc1OCc1ccc(Cl)cc1,–,"inconclusive: 12.6 µM [activator, partial curve, poor fit]"
COc1ccc(CC(=O)c2ccc(OC3OC(CO)C(O)C(O)C3O)cc2O)cc1 (centres undefined),–,active: 11.2 µM
N#CCc1nc2ccccc2c(=O)[nH]1,inactive: -16.7%,–
COc1ccc(-c2oc(NC(=O)CSc3nncn3C)c(C#N)c2-c2ccc(OC)cc2)cc1,inactive: -68.8%,–
O=C(Nc1ccc2ccccc2c1)c1ccccc1Cl,–,"inconclusive: 1.26 µM [activator, partial curve, poor fit]"
CCOc1ccc(OCc2ccc(C(=O)Nc3ccc(Cl)cn3)o2)cc1,–,"inconclusive: 1.58 µM [activator, partial curve, poor fit]"
Cn1cccc1/C=C1\SC(=O)N(c2ccc(O)cc2)C1=O,–,active: 10 µM
O=C(Nc1ccc(F)cc1)c1ccc(S(=O)(=O)NCC2CCCO2)cc1 (centres undefined),inactive: -50.1%,–
Cc1ccccc1C(=O)Oc1ccc2ccc(O)cc2c1,–,"inconclusive: 14.1 µM [activator, partial curve, poor fit]"
Cc1ccc(N(C(=O)Cc2cccs2)C(C(=O)NC2CCCCC2)c2ccccn2)cc1C (centres undefined),inactive: -61.1%,–
COc1ccc(NC(=S)NC(=O)c2ccccc2)cn1,–,active: 11.2 µM
CN(C)c1ccc(/C=C2\C=Cc3ccccc32)cc1,–,active: 3.55 µM
O=C(NCc1cccs1)c1cc2c(s1)CCCC2,–,active: 12.6 µM
CC(C)CCNC(=O)NC(=O)CSc1ccc(S(=O)(=O)N2CCOCC2)cn1,inactive: -15.9%,–
Cc1cccc(-c2nnn(CC/C(N)=N/O)n2)c1,–,"inconclusive: 11.2 µM [activator, partial curve, poor fit]"
CC(=O)Nc1ccc(/C=N/Nc2nncc3ccccc23)cc1,–,"inconclusive: 12.6 µM [activator, partial curve, poor fit]"
O=C(Nc1ccc(N2CCCC2)c(Cl)c1)c1ccccc1F,–,active: 3.16 µM
CCOC(=O)c1nnc(-c2ccccc2)o1,inactive: -4.85%,–

SMILES,activation,Potency
CC1CCCCN1C(=O)CSc1nnc(-c2ccccc2O)o1 (centres undefined),–,"inconclusive: 2 µM [activator, partial curve, poor fit]"
Cc1cccc(CNc2ncnc3ccc(-c4ccc5c(c4)OCCO5)cc23)c1,inactive: -21.2%,–
COC(=O)c1cc(O)cc(OC)c1Oc1cc(C)cc(O)c1C(=O)O,inactive: -79.3%,–
CNc1nnc(-c2cc3ccccc3oc2=O)s1,–,"inconclusive: 1.58 µM [activator, partial curve, poor fit]"
O=C(NCc1cccs1)c1cc2c(s1)-c1ccccc1OC2,–,"inconclusive: 6.31 µM [activator, partial curve, poor fit]"
COc1ccccc1NC(=O)Nc1nc(CC(=O)NCc2c(F)cccc2F)cs1,inactive: -10%,–
Brc1ccc(CSc2nnc3ccccn23)cc1,–,"inconclusive: 22.4 µM [activator, partial curve, poor fit]"
Cc1ccc(NC(=O)c2cc(=O)n(Cc3ccccc3)c(=O)[nH]2)cc1C,inactive: -16.1%,–
Oc1oc(-c2ccc(Br)cc2)nc1/C=N/c1ccccn1,–,"inconclusive: 31.6 µM [activator, single point]"
Oc1ccc(-c2csc(Nc3ncccn3)n2)cc1,–,"inconclusive: 0.631 µM [activator, full curve, poor fit]"
Cc1cc(C)c2c(N)c(C(=O)N/N=C/c3ccccc3)sc2n1,–,"inconclusive: 2.51 µM [activator, partial curve, poor fit]"
Cc1ccc(S(=O)(=O)C2(C(=O)N3CCN(c4cc(C)ccc4C)CC3)CC2)cc1,inactive: -30.8%,–
CC(C)COc1ccc(C(=O)Nc2ccc(SC(F)F)cc2)cc1,–,active: 8.91 µM
S=C(NCCc1ccccc1)N1CCc2ccccc2C1,–,active: 10 µM
C=C(C)CN(CC)C(=O)CCc1nnc(CCCc2ccccc2)o1,–,"inconclusive: 11.2 µM [activator, partial curve, poor fit]"
CC(C)C(=O)Nc1ccc2nn(-c3ccccc3)nc2c1,inconclusive: 109% [activator],–
CN(CC(=O)Nc1cccc(F)c1)C(=O)c1cccc(S(=O)(=O)N2CCN(Cc3ccccc3)CC2)c1,inactive: -36.9%,–
COc1cc2c(c(OC)c1OC)-c1ccc(SC)c(=O)cc1C(NC=O)CC2 (centres undefined),inconclusive: -85.9% [activator],–
O=C(Nc1ccc(F)cc1F)Nc1ccc(F)cc1F,–,active: 10 µM
COc1ccc(/C=C/C(=O)NC(=S)N2CCN(c3ccccc3OC)CC2)cc1,–,active: 3.98 µM
O=c1cc(N2CCCCC2)c2ccccc2o1,inactive: 6.03%,–
Fc1ccc(Nc2ncnc3c2nc2n3CCCCC2)c(F)c1,–,"inconclusive: 2.24 µM [activator, full curve, poor fit]"
O=C(Nc1ccc2oc(-c3ccccc3)nc2c1)c1ccco1,–,"inconclusive: 1.26 µM [activator, full curve, poor fit]"
O=C(COc1ccccc1)Nc1nccs1,–,"inconclusive: 2.51 µM [activator, full curve, poor fit]"
COC(=O)CSC1=C(C#N)C(=O)NC(c2ccccc2)S1 (centres undefined),inactive: 10.8%,–
O=C(Nc1ccc(N2CCOCC2)c(Cl)c1)c1cccc(F)c1,–,"inconclusive: 1.26 µM [activator, partial curve, poor fit]"
Cc1nn(-c2ccccc2)c(Cl)c1/C=N/NC(=O)c1[nH]ncc1Br,–,"inconclusive: 1.26 µM [activator, full curve, poor fit]"

SMILES,activation,Potency
Cc1ccc(-c2nc(C=Nc3ccccc3)c(O)o2)cc1,–,"inconclusive: 10 µM [activator, partial curve, poor fit]"
O=C(OCc1ccccc1)N1CCC2CC1c1ccc(/C=C/CCCCl)cc12 (centres undefined),–,"inconclusive: 22.4 µM [activator, single point]"
Cc1onc(-c2ccccc2)c1C(=O)NC1CCCCC1C (centres undefined),inactive: 3.31%,–
CCN1CCN(C(c2cccs2)C(C)NC(=S)Nc2cc(C)ccc2C)CC1 (centres undefined),inactive: 0%,–
C=CCC1(CC=C)CCCN1C(=O)c1cc(COc2cccc(C(F)(F)F)c2)on1,inactive: -57.7%,–
O=C(CCNS(=O)(=O)c1cccs1)N1CCCCCC1,–,"inconclusive: 35.5 µM [activator, single point]"
O=C(N/N=C/c1cc(Br)cs1)c1c[nH]c2ccccc12,inactive: 67.3%,–
O=C(Nc1ccc2c(c1)OCO2)c1cc(C2CC2)on1,–,active: 4.47 µM
Cc1cc2nc(-c3ccccc3)cc(=O)n2[nH]1,–,active: 10 µM
Cc1ccc(-c2cc(C(=O)NC3CCCC3)no2)cc1,–,"inconclusive: 1.26 µM [activator, full curve, poor fit]"
CC(=O)CCC1CC(c2ccc(Cl)cc2)=NO1 (centres undefined),–,"inconclusive: 2.24 µM [activator, full curve, poor fit]"
COc1ccc(-c2cc(=Nc3ccc(C(=O)O)cc3)c3cc(C)ccc3o2)cc1,–,"inconclusive: 2.51 µM [activator, partial curve, poor fit]"
Cc1ccnc(NS(=O)(=O)c2ccc(NC(=O)C3C4C=CC(C4)C3C(=O)O)cc2)n1 (centres undefined),inactive: -2.83%,–
C/C(=N\Nc1nccnc1Cl)c1ccc(F)cc1,–,active: 8.91 µM
Cc1ccc(CNC(=O)C2CCCN(c3nc4ccsc4c(=O)s3)C2)cc1 (centres undefined),inactive: -26.1%,–
Oc1cc(-c2ccncc2)cc2cccnc12,inactive: -84.7%,–
OCc1ccccc1OCCCOc1cccc2cccnc12,–,"inconclusive: 7.94 µM [activator, partial curve, poor fit]"
COc1ccc(OC)c(-c2cc(C(=O)Nc3c(C)nn(Cc4ccccc4C)c3C)no2)c1,inactive: -41.3%,–
CC1=CC(C)(C)Nc2ccc(OC(=O)c3cccnc3)cc21,inactive: -68.9%,–
Cc1cc(O)ccc1N/C=C/c1onc(C)c1[N+](=O)[O-],–,"inconclusive: 2.51 µM [activator, full curve, poor fit]"
COc1cccc(-c2nn3c(-c4cccc(C)c4)nnc3s2)c1,–,"inconclusive: 15.8 µM [activator, single point]"
N/C(=N\OC(=O)CSc1ccccc1)c1ccc([N+](=O)[O-])cc1,–,active: 11.2 µM
COc1cnn(-c2ccc(C)cc2)c(=O)c1Cl,–,"inconclusive: 10 µM [activator, partial curve, poor fit]"
Cc1ccc(N=Nc2ccc(O)cc2)c(Br)c1,–,"inconclusive: 3.55 µM [activator, partial curve, poor fit]"
O=C(c1nc2ccccc2s1)N1CCSCC1,–,"inconclusive: 10 µM [activator, partial curve, poor fit]"
